Test results: PubChem BioAssay AID588855 (National Center for Advancing Translational Sciences (NCATS), 2011)
The whole screen tested about 410,000 compounds, of which about 5,000 (1.2%) were called active. This list was built around the results that the source calls inconclusive (neither active nor inactive); the mix of calls is not that of the screen. Calls follow the shape of the dose curve; as a rule, active = well fitted inhibition curve with a large enough effect; inconclusive = small, poorly fitted or top-dose-only effect; inactive = no such curve, though single readings can be large or run the other way. A potency beside an inconclusive call is a rough fit, not a confirmed value.

test: qHTS for Inhibitors of TGF-b; conditions: HepG2 CAGA-GFP TGF-b/SMAD3 reporter, GFP fluorescence, 18 h, TGF-beta stimulated, 500 pg/mL final; series mostly up to 46.1 µM; also: nearly all actives have a fitted effect of over 65% in size
Method in brief: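 Using HEPG2 CAGA-GFP reporter cells at 1000 cells/well, we pinned test compounds, stimulated with recombinant TGF-beta (500 pg/mL final) and measured total well GFP after 18 h.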
Potency is read from the fitted curve at half-maximal effect; tags tell the direction and shape of the fitted curve.

Structure (SMILES)	Potency
COc1cccc(NC(=O)CCc2nnc3ccc(N4CCN(c5cccc(OC)c5)CC4)nn23)c1	inactive
CC(C)(CO)Nc1ncnc2onc(-c3ccc(F)cc3)c12	inactive
COC(=O)c1ccc(CSc2nc(N3CCOCC3)c3c(c2C#N)CC(C)(C)OC3)o1	inconclusive: 35.5 µM [inhibitor, single point]
Cc1ccc(/C=C/c2nc3ccccc3[nH]2)o1	inconclusive: 6.31 µM [inhibitor, single point]
Cc1ccc(S(=O)(=O)NCC(=O)NCC2CCCCC2)cc1C	inconclusive: 22.4 µM [inhibitor, partial curve, poor fit]
Cn1c(=O)c2c(ncn2Cc2ccc(Cl)c(Cl)c2)n(C)c1=O	inactive
CCCCC(=NCCc1c(C)[nH]c2ccccc12)C1=C(O)CC(c2ccccc2)CC1=O (configuration not stated)	inactive
C[C@H](CO)N1C[C@H](C)[C@@H](CN(C)Cc2ccc(-c3ccccc3)cc2)Oc2c(NS(=O)(=O)c3ccc(F)cc3)cccc2C1=O	inconclusive: 35.5 µM [inhibitor, single point]
FC(F)C(F)(F)C(F)(F)C(F)(F)c1cc(-c2ccccc2)n[nH]1	inconclusive: 11.2 µM [inhibitor, partial curve, poor fit]
Cc1cc(=O)n(CC(=O)N2CCN(c3ccc(F)cc3)CC2)c2c1c(C)nn2C	active: 7.08 µM
Cc1cs/c(=N/C(=S)Nc2ccccc2)n1C	inactive
Cc1ccccc1Oc1cc(NC(=O)CCCn2nc(C)c([N+](=O)[O-])c2C)cc([N+](=O)[O-])c1	inconclusive: 0.708 µM [inhibitor, full curve, poor fit]
Cc1cc(C)c(C#N)c(SCc2ccc(F)cc2)n1	inconclusive: 3.16 µM [inhibitor, single point]
Cc1ccc(C(=O)OCC(=O)Nc2nc(-c3ccccc3)cs2)cc1NC(=O)c1ccco1	inconclusive: 6.31 µM [inhibitor, single point]
CC(=O)c1ccc(N2CCN(C(=O)c3cc4c(s3)CCCC4)CC2)cc1	inconclusive: 11.2 µM [inhibitor, partial curve, poor fit]
C[C@@H]1CN([C@@H](C)CO)C(=O)c2cc(Br)cnc2O[C@@H]1CN(C)C(=O)CN(C)C	inactive
COc1cc2[nH]c(C(=O)N3CC(C)OC(C)C3)cc2c(OC)c1OC (configuration not stated)	inactive
O=C(COC(=O)CCc1ccc(S(=O)(=O)N2CCOCC2)cc1)NCc1ccccc1Cl	inconclusive: 35.5 µM [inhibitor, single point]
COC(=O)CN1C(=O)CSc2ccc(S(=O)(=O)Nc3cccc(Cl)c3C)cc21	inconclusive: 0.562 µM [inhibitor, full curve, poor fit]
CSCC[C@H](NC(=O)N1CCn2c1nc1ccccc12)C(=O)NCc1ccc(C)cc1	inconclusive: 12.6 µM [inhibitor, partial curve, poor fit]
Cc1cc(C)c2sc(N(CCCN(C)C)C(=O)COc3ccc(Cl)cc3)nc2c1	inconclusive: 25.1 µM [inhibitor, single point]
O=C(Nc1cccc(NC(=O)c2ccccc2Cl)c1)c1cccc(Br)c1	inactive
COc1ccc(-c2nn(-c3ccccc3)cc2/C=N/N2C(=O)CSC2=S)cc1	inactive

Structure (SMILES)	Potency
COc1ccc([N+](=O)[O-])cc1NC(=O)C(C)NNC(=O)c1cccc([N+](=O)[O-])c1 (configuration not stated)	inactive
O=C(CN1C(=O)c2ccccc2C1=O)NCC(=O)Nc1ccccc1	inconclusive: 3.16 µM [inhibitor, single point]
COc1ccc(CNCC(O)(c2ccc(F)cc2)c2ccc(F)cc2)cc1OC	inconclusive: 35.5 µM [inhibitor, single point]
CCCCC(=O)NC(=O)NC(c1ccccc1)c1ccccc1	inconclusive: 35.5 µM [inhibitor, single point]
Cc1ccc(OCCn2cc(C=O)c3ccccc32)cc1	active: 11.2 µM
Cc1ccc(C2=NN(C(=O)CCl)C(c3ccco3)C2)o1 (configuration not stated)	inconclusive: 35.5 µM [inhibitor, single point]
CC(C)(C)c1nc(SCC(=O)N2CCCC2)c2ccccc2n1	inconclusive: 2.82 µM [inhibitor, single point]
CCOC(=O)c1ccc(N2C(=O)CC(N3CCN(Cc4ccccc4)CC3)C2=O)cc1 (configuration not stated)	inconclusive: 31.6 µM [inhibitor, single point]
Cc1ccc(S(=O)(=O)NCCNC(C)c2ccc(Br)cc2)cc1 (configuration not stated)	inconclusive: 35.5 µM [inhibitor, single point]
Cc1cc(O)ccc1NC(=S)NC(=O)c1cncc(Br)c1	inconclusive: 15.8 µM [inhibitor, single point]
Cc1ccc(/C=N/N2C(=O)c3ccccc3NC2c2ccc(C)cc2)cc1 (configuration not stated)	inconclusive: 22.4 µM [inhibitor, single point]
CC(C)(C)c1ccc(S(=O)(=O)N2CCC(O)(c3ccc(Cl)cc3)CC2)cc1	active: 12.6 µM
COc1ccc(C(CNC(=O)COc2cc(C)cc(C)c2)N2CCOCC2)cc1 (configuration not stated)	inconclusive: 0.0708 µM [inhibitor, full curve, poor fit]
O=C1c2ccccc2-c2onc3c(NCCO)cc(NC4CCCCC4)c1c23	active: 11.2 µM
COc1ccc(/C=N/Nc2cc(C)nc3ccc(Br)cc23)cc1	active: 11.2 µM
O=C(c1cccs1)N(Cc1cc2ccccc2[nH]c1=O)c1ccccc1	inconclusive: 25.1 µM [inhibitor, single point]
CCCCOc1ccc(Cn2c(=O)sc3ccccc32)cc1	inconclusive: 35.5 µM [inhibitor, single point]
COc1ccc(N2CCN(c3csc4ccccc4c3=O)CC2)cc1	inconclusive: 35.5 µM [inhibitor, single point]
Cc1ccc(Cc2c(C3CCCCC3)nc3ccc(Cl)cn23)cc1	inconclusive: 20 µM [inhibitor, single point]
COc1c2ccoc2c(OC[C@@H](OC(C)=O)C(C)(C)O)c2oc(=O)ccc12	inactive
CCC1CCCCN1CCCNC(=O)Cn1cc2c(n1)-c1c(oc(C(=O)N3CCCC3)c1C)CC2 (configuration not stated)	inactive
O=C(NCC(c1ccco1)N1CCCC1)c1cccc(S(=O)(=O)Nc2ccc(Br)cc2)c1 (configuration not stated)	inconclusive: 35.5 µM [inhibitor, single point]
COc1cccc(-n2c(=O)c3sc4ccccc4c3n(CC(=O)Nc3ccccc3C)c2=O)c1	inconclusive: 0.794 µM [inhibitor, full curve, poor fit]

Structure (SMILES)	Potency
O=C(CSc1c2c(nc3cc(Cl)ccc13)CCCC2)NCc1ccccc1Cl	inconclusive: 11.2 µM [inhibitor, single point]
CCOC(=O)N1CCN(C(=O)c2ccc3c(c2)N=C(CC)c2cc(C)ccc2S3)CC1	inconclusive: 35.5 µM [inhibitor, single point]
COc1ccc(-c2cn(/N=C/c3ccc(Cl)cc3Cl)c(N)n2)cc1	inconclusive: 6.31 µM [inhibitor, full curve]
Cc1ccc(S(=O)(=O)N(C)CCCC(=O)Nc2ccccn2)cc1	inactive
CC(C)C1C(=O)N(Cc2cn(CCC3OCCO3)nn2)CCS(=O)(=O)N1Cc1ccc(-c2ccccc2)cc1 (configuration not stated)	inconclusive: 22.4 µM [inhibitor, single point]
COC(=O)c1c(NC(=O)COC(=O)[C@@H](NS(=O)(=O)c2ccc(C)cc2)C(C)C)sc2c1CCC2	inconclusive: 17.8 µM [inhibitor, single point]
COc1ccc(NC(=O)C(NC(=O)/C=C\c2ccc3c(c2)OCO3)c2ccccc2)cc1 (configuration not stated)	inconclusive: 10 µM [inhibitor, partial curve, poor fit]
CC(C)(C)C(=O)Nc1nnc(-c2ccncc2)o1	inactive
Oc1cccc(NC(=S)N=Nc2c(O)[nH]c3ccc(Br)cc23)c1	inconclusive: 25.1 µM [inhibitor, single point]
O=C(Nc1cc(S(=O)(=O)N2CCOCC2)ccc1Cl)C1CCC1	inconclusive: 6.31 µM [inhibitor, single point]
COc1cccc(C2CC(c3cccs3)=NN2C(=O)CSC2=NCCS2)c1OC (configuration not stated)	inconclusive: 0.501 µM [inhibitor, full curve, poor fit]
COc1ccccc1-n1c(-c2cn(C)nc2C)n[nH]c1=S	inconclusive: 2.24 µM [inhibitor, full curve, poor fit]
O=C(NC1CC2CCCC(C1)N2C(=O)NCc1ccccc1)C1CC1 (configuration not stated)	inconclusive: 17.8 µM [inhibitor, single point]
COCCN(CCOC)c1ncnc2c1c(-c1ccccc1)cn2-c1ccc(C)c(Cl)c1	inconclusive: 17.8 µM [inhibitor, single point]
C/C(=N\Nc1ccc(Cl)c(Cl)c1)c1ccc(-n2ccnc2)cc1	inconclusive: 35.5 µM [inhibitor, single point]
Cc1ccnc2ccc3ccccc3c12	inactive
COc1ccccc1CNC(=O)c1cc(C)nc2ccccc12	inactive
COc1cc(CC(NC(C)=O)C(=O)NC2CCN(C(=O)Nc3ccccc3C)CC2)cc(OC)c1 (configuration not stated)	inactive
Cc1ccc(C(C)C)cc1OCC(=O)NC1CCCCCCC1	inconclusive: 35.5 µM [inhibitor, single point]
OC(c1ccccc1)c1nc(-c2ccc(Cl)cc2)cs1 (configuration not stated)	inactive
CN(C)CCCNc1ncnc2sc(-c3ccccc3)cc12	inconclusive: 15.8 µM [inhibitor, single point]
